In the supplement of paper PMC3334620:
Over roughly 33,000 sequences, “E-score (-0.5 to 0.5)” has its median near -0.056; the highest 2% begin near 0.38. Some of the results follow.

biological target: Stb4 (UniProt P50104); assay: PBM E-score (8-mer binding enrichment) (E-score (-0.5 to 0.5)); higher = stronger / more preferred TF binding; most listed sequences are background and not binding sites; details: protein concentration: 200 nM; construct: GST-DNA-binding domain
Procedure, shortened: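 Bound GST-tagged yeast transcription factors, applied at about 100-200 nM to double-stranded universal all-10-mer Agilent arrays, were detected with fluorescent anti-GST. Scans were normalised with masliner. A modified Wilcoxon-Mann-Whitney statistic, the E-score, was assigned to each ungapped eight-base word pooled with its reverse complement by the Universal PBM Analysis Suite.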

Sequence | PBM E-score
GCCCCTAA | -0.127
CAGTGTGG | -0.271
ACGCGTAC | -0.149
GATACGCC | 0.156
TCACATAA | -0.137
ACAATGTA | 0.0811
ATCGTTAC | -0.164
GCCCGAGC | 0.316
GAGAGTAA | 0.101
ATAGGTTG | -0.194
ACCACGCT | -0.0647
ATATGCTG | -0.164
CAAGATGC | 0.0665
GCAATACA | 0.0661
GCCCGTTA | 0.0448
CCCCCATA | -0.245
CAAGTATC | -0.153
GCTTCGTA | -0.25
CATCAGGC | -0.149
ACATCGCA | 0.00514
ATAAAATC | 0.116
ACGAGGTG | -0.0198
AGTCACTA | -0.158
AATTCGTG | -0.153
ATGCACAC | -0.108

Sequence | PBM E-score
CAAAGCGA | -0.138
CCTTGCTC | -0.054
CATGATAG | -0.206
CGAACTTC | -0.0313
CTTTGTTC | 0.153
AATACGGA | 0.257
GGCGCCTA | -0.217
TAGAGCTA | -0.321
AACGAGAG | -0.154
ATGGTACG | -0.0603
GGTCTCAC | 0.00049
CCCACGGA | 0.215
AGATTAAT | -0.0514
AAGGGTGT | 0.00314
GTCTACAA | -0.146
AGACCCAG | -0.17
ACCCGCCA | 0.0903
AGCTGCCG | 0.246
ACCCCAGA | -0.237
GAATAATC | 0.0871
CTCGGACC | 0.412
CAGATTAA | 0.0478
GTCTGAAA | -0.0933
AACCGTAA | 0.0886
CTAAGCGC | -0.129

Sequence | PBM E-score
CAGCCTGC | -0.0896
ACAAGCAA | -0.275
AAGGACGG | 0.0564
CGATGTAC | 0.104
CCGTTCCG | 0.431
TCCCCCAA | -0.253
TGGCGGAA | 0.218
CTGTGATC | 0.0393
ACCGGAAA | 0.384
GGATTTAA | 0.208
AAATCTAT | -0.00166
GCCCATAC | -0.201
ATCCCCGC | 0.248
AAGCCAGG | -0.215
GATTATAC | 0.155
ATAGGTGA | -0.155
CTACTCGC | -0.00316
TGCTGCAA | -0.246
CCGACCAG | 0.254
CAGAGCAA | -0.0378
CCGGAACC | 0.41
CTGGTGCA | -0.279
CATGACTC | -0.135
GGCGTCCC | -0.0274
ATAATCTA | 0.0816

Sequence | PBM E-score
CGCCCTAA | -0.191
CAGCCAGC | -0.218
ATAAGACC | -0.03
ACCGGCCT | 0.025
CGCCGGAA | 0.392
AACCTTGA | -0.0605
GACACCAA | -0.00807
CTGTCCCC | -0.191
CTTTAATC | -0.117
CAAGGGAA | -0.173
GACTGTCA | -0.0239
TATAGCAA | -0.0232
CAGAAGTC | -0.174
GTCTTAAA | -0.101
ACCGCGCC | 0.0314
CACGAAAG | -0.148
AGTGAACC | 0.11
CATACGTC | -0.0287
AACATAAC | 0.0406
CCGATTAG | 0.299
CCATTTAG | -0.154
ATCCTGGG | -0.093
TCTTGTAA | -0.0477
CACCTGGA | -0.254
CTCGGTTA | 0.44

Sequence | PBM E-score
ACGGAAGG | 0.313
GGTCTGAC | -0.002
CTGTCCAA | -0.166
CGAAAGTA | 0.134
CTTACTTC | 0.0292
CCACCCTA | -0.112
GGGCGCCA | -0.101
GACTCGGA | 0.451
CCATTTCG | 0.159
CCTAGAGA | -0.275
CCTACGAG | -0.131
TCGGCGCA | 0.262
GCAGCTGC | 0.252
CTAGTGTA | -0.296
AAAAACCC | 0.0986
GATGCTCC | 0.145
CTATCAAA | -0.0734
TCAAGCCA | -0.0789
CTCCGGGC | 0.131
CCCCGAGC | 0.371
AGATGCTG | -0.18
GAAAGGTA | -0.00797
GCGTGCCC | -0.0774
CTCAAAAA | 0.00307
AAACTAGG | -0.0954

Sequence | PBM E-score
GTTGAACA | -0.0395
GGTCCCCA | -0.0796
TAAGAAAA | 0.0397
CGTTCCAA | -0.0817
CCACAAAC | 0.121
GCCCGTAC | -0.0102
AGCCCTCA | -0.0656
GTTTCATA | 0.00836
CGCAACGA | 0.011
ATTTCAGA | -0.192
AACTTCGG | 0.408
CAGATGCG | -0.0769
TTCGGCAA | 0.454
ACTGGTAT | -0.159
ACTCGACA | 0.0107
CTTTATAA | -0.203
CTACGATC | 0.0347
ACAATTGC | 0.0137
ACATTTAC | -0.145
CGGCGTAG | -0.126
ACCGGGTC | 0.187
CTAAAGGC | -0.255
GGGCATAC | 0.124
CGTTTTTA | -0.0102
CCTAGTGA | -0.188

Sequence | PBM E-score
ATTCAGAC | -0.2
CTCTGTCA | -0.211
GGTCTGCA | 0.0252
CGCTACGC | -0.0382
ACGCTCAT | -0.276
ATTTCGGG | 0.39
AAAGGGAC | -0.154
GGATGAAA | 0.165
CTTCTAGC | -0.135
CATGGAAC | -0.133
CTCAAGAA | -0.116
CCACTGCC | -0.0125
AACACCAT | -0.049
ACAAAAAT | -0.082
AGAAGTGA | -0.136
ATCTTAGC | -0.119
CGGCGTAC | 0.149
ATAACGCG | 0.0342
AACGCAAA | -0.0857
GCATTAAA | -0.189
CCGAAGGC | 0.336
AGATGGCC | 0.0103
